Over roughly 33,000 sequences, “E-score (-0.5 to 0.5)” has its median near -0.035; the highest 2% begin near 0.34. Some of the results follow.
Biological target: T1, Mot3 (UniProt P54785)
T1 sequence: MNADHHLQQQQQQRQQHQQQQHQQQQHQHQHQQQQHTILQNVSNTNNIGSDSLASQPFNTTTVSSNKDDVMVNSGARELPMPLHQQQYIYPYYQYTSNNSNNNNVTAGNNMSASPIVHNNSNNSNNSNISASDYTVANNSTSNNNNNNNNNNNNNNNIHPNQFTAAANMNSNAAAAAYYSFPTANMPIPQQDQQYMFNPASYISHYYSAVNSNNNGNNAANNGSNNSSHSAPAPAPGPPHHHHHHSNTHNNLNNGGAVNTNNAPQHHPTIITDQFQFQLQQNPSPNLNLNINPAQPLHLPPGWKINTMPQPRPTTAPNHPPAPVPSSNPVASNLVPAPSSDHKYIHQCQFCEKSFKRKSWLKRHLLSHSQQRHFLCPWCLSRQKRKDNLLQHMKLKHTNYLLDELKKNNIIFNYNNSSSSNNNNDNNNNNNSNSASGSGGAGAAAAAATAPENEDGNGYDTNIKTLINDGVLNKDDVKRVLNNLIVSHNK
Test: PBM E-score (8-mer binding enrichment) (E-score (-0.5 to 0.5)); higher = stronger / more preferred TF binding; most listed sequences are background and not binding sites
Settings: protein concentration: 200 nM; construct: GST-full length
How it was run: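 The E-score, a modified Wilcoxon-Mann-Whitney statistic, was computed by the Universal PBM Analysis Suite for every ungapped eight-base word pooled with its reverse complement. Scans behind it were normalised with masliner after bound GST-tagged yeast transcription factors were detected with fluorescent anti-GST. The proteins, at about 100-200 nM, had been applied to universal all-10-mer Agilent arrays made double-stranded by primer extension.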

Sequence | PBM E-score
CCGTGTAA | 0.403
CCACAAGC | -0.132
CAACGCCG | -0.0286
ACTCAGTA | 0.0267
GACTCAGC | -0.144
AACAGAAG | 0.0357
GCGGGGCA | -0.27
CAGCTTTC | -0.181
TCTGCGAA | -0.0732
CGAGCAAG | -0.136
ACAGTTCT | -0.132
GCGATTGA | -0.147
CTACGCGC | 0.168
GCGGTGAC | -0.152
TAAGGCCA | 0.211
ACGTGTCA | 0.342
ACTCAATG | 0.075
ACGATTCT | 0.176
GTTTTATA | 0.101
GAGGGTAA | -0.231
ACCTCGGG | -0.205
CATTTATC | 0.0368

Sequence | PBM E-score
AACTCCCT | -0.118
ACAAAACC | 0.219
GACAGATC | -0.135
CGCCGTAC | -0.00243
GACGACCC | -0.195
GCATCTAC | 0.0529
CTGCTCTC | -0.0677
ACTCCGAG | -0.00559
AAGCTTTA | 0.0683
CTCCTTTC | -0.144
CAGCGTAC | -0.0299
GGGTCGAC | -0.128
CTCCGGCA | -0.274
AATGTCGC | 0.0295
ACACTTCC | -0.0917
GACCCAAC | -0.209
CCAAGGCA | 0.458
ACCGTGTC | 0.216
ATGGGTTC | -0.2
AGGGTATA | -0.013
TCAAATAA | -0.0852
ATTTCTCA | -0.148

Sequence | PBM E-score
CAGGTCGC | -0.225
CGGGGTAC | -0.191
ACTGTAGA | 0.032
GCCTATCA | 0.0862
CGTATAAA | 0.223
ATGTGATC | 0.245
CCATCACC | -0.108
GGTCGCAA | -0.0835
GCGGGGGA | -0.244
ATCACTTG | 0.0864
ATATAGGA | 0.176
CTACGTAG | 0.216
AAGCGTCT | -0.234
GGATTTTA | -0.0248
TCTAATCA | -0.00325
CATGCTTA | 0.118
AAATCCTG | 0.0801
CACCGTAC | -0.00522
AGTGGCTA | -0.213
ACGAACAC | 0.144
TGGAAACA | -0.129
GAGATTCA | -0.181

Sequence | PBM E-score
GTAATCGA | 0.212
CCTAAAGA | 0.0822
ATGTAAGC | 0.267
TATTATCA | 0.0573
CAATGACG | -0.076
AGGCCTTA | -0.0962
CGGCGTCA | -0.137
CTTTTTAA | 0.0727
CTCTGCAG | -0.0721
AAGATCTT | 0.0925
CGTTTCCA | -0.0535
CTCGTTTA | 0.097
CAACTATG | 0.0723
CAGGACTA | -0.16
CGATTTCA | 0.0519
CCCTTGAC | -0.242
CGGAACTC | -0.29
ACTATCAA | 0.0723
CCAGCCGA | -0.311
ATGAGAAC | 0.00278

— the supplement of paper PMC3334620
